From PubChem BioAssay AID588453 (National Center for Advancing Translational Sciences (NCATS), 2011)
Among all 390,000 compounds or so, about 4,000 (1%) were called active. The call rests on the fitted dose curve; in most records, active means well fitted inhibition curve with a large enough effect; inconclusive means small, poorly fitted or top-dose-only effect; inactive means no such curve, though single readings can be large or run the other way. Inconclusive means that the source gave no clear call. A potency beside an inconclusive call is a rough fit, not a confirmed value.

target: Thioredoxin reductase 1, cytoplasmic (Rattus norvegicus) (UniProt O89049); test: qHTS Assay for Inhibitors of Mammalian Selenoprotein Thioredoxin Reductase 1 (TrxR1): qHTS; details: recombinant rTrxR1, NADPH fluorescence consumption, selenite substrate; series mostly up to 114 µM; further: nearly all actives have a fitted effect of over 65% in size
Sequence of UniProt O89049 (O89049 whole entry, looked up): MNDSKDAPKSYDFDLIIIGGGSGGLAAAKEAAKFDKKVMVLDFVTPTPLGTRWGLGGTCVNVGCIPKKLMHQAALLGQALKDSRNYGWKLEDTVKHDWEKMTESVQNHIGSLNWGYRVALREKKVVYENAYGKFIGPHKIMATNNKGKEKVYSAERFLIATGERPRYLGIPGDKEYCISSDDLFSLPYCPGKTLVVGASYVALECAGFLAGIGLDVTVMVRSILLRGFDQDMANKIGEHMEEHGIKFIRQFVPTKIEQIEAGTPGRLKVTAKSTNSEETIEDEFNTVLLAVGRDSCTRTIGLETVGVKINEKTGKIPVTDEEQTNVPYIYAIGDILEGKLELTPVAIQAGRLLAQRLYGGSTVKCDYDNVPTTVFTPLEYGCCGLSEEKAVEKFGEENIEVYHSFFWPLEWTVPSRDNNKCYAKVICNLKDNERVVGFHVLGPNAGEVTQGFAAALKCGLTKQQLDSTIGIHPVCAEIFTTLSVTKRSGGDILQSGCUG
Excerpt: The selenoprotein thioredoxin reductase (TrxR; EC 1.8.1.9) is a FAD containing homodimeric pyridine nucleotide-disulfide oxidoreductase with many cellular roles. Together with NADPH and its prime substrate thioredoxin (Trx), the enzyme forms the core of the Trx system. The mammalian Trx system exerts a wide spectrum of functions including redox regulation, antioxidant defense, regulation of transcription factors as well as support of cell growth and replication. Many of these functions involve the reduction of Trx, which may subsequently reduce a number of different substrates including ribonucleotide reductase, peroxiredoxins or NFkB. Mammalian TrxR itself also has a broad substrate specificity, reducing both protein and non-protein substrates, including low molecular weight compounds such as dehydroascorbate, lipoic acid, ubiquinone, and juglone. In addition, several drugs in clinical use for anticancer treatment are indeed known to target TrxR1.
This BioAssay is a validation of an NADPH fluorescence-based, dual-purpose qHTS rTrxR1 assay designed to find potential inhibitors and substrates of rTrxR1. For this particular BioAssay, actives are potential inhibitors. See related BioAssay for substrate data deposition.
NIH Molecular Libraries Probe Production Network [MLPCN]
NIH Chemical Genomics Center [NCGC]
Assay Provider: Elias Arner, Karolinska Institute
Assay protocol: 2 uL of reagents (buffer in column 4 as negative control and 90 nM rTrxR1 in columns 1-3 and 5-48) were dispensed into Greiner black solid-bottom 1,536-well assay plates, followed by 1 uL of NADPH (400 uM final concentration) to each well. The plates were centrifuged at 1000 rpm for 15 seconds and subsequently incubated for 5 min at room temperature (~22 deg C) to allow for rTrxR1 reduction. Compounds (23 nL) were then transferred via Kalypsys pin tool equipped with 1536-pin array (10 nL slotted pins, V&P Scientific, San Diego, CA). In addition, a duplicate 2-fold serial dilution of the control compounds auranofin, a known gold-based TrxR1 inhibitor, and juglone (5-hydroxy-1,4-naphthoquinone), a natural TrxR1 substrate, were pin-transferred to columns 2 and 3, respectively. After incubation for 15 min at room temperature (~22 deg C), 1 uL of selenite (400 uM final concentration) were dispensed to each well. The plate was immediately transferred to a ViewLux high-throughput CCD imager (PerkinElmer), wherein kinetic measurements of NADPH fluorescence (Ex 340 nm, Em 450 nm) were acquired (8 minute kinetic read, see Table 1). Read 1 was utilized to assess the capacity of a compound to serve as an rTrxR1 substrate, i.e. a decrease in NADPH fluorescence compared to the no-compound background is an indication of a substrate behavior for that particular compound. For inhibitory activity of a compound, delta values, computed as the difference in fluorescence intensity between the first and last reads of an 8-minute time kinetic window, were used. All reagents were diluted in an assay buffer consisting of 50 mM Tris-HCl, pH 7.5, 2 mM EDTA, and 0.01% Tween-20.
Throughout the screen, reagent bottle and all liquid lines were made light-tight to minimize reagent degradation. All screening operations were performed on a fully integrated robotic system (Kalypsys, San Diego, CA) containing one RX-130 and two RX-90 anthropomorphic robotic arms (Staubli, Duncan, SC). […]
Potency means the concentration at half of the fitted maximal effect; tags describe the fitted curve by direction and shape.

Row | Compound | Potency
1 | Cc1ccc(S(=O)(=O)Oc2ccc(/C=C3\C(=N)N4N=C(S(C)(=O)=O)SC4=NC3=O)cc2)cc1 | inconclusive: 39.8 µM [inhibitor, partial curve]
2 | CS(=O)(=O)C1=NSC2=NC(=O)/C(=C\c3ccc(OC(=O)c4ccco4)c(Br)c3)C(=N)N21 | inconclusive: 44.7 µM [inhibitor, partial curve, poor fit]
3 | COc1cc(NS(=O)(=O)c2ccc(NC(=S)NC(=O)c3sc4ccccc4c3Cl)cc2)nc(OC)n1 | inconclusive: 79.4 µM [inhibitor, single point]
4 | Cc1cc(N2C(=O)C(O)=C(C(=O)c3cc4ccccc4o3)C2c2ccc(Cl)cc2)no1 (stereo not given) | inconclusive: 1 µM [inhibitor, full curve, poor fit]
5 | O=C1NN(c2ccc(F)c(Cl)c2)C(=O)/C1=C\c1cccc(OC(=O)c2cccs2)c1 | inconclusive: 14.1 µM [inhibitor, partial curve]
